From PubChem BioAssay AID588855 (National Center for Advancing Translational Sciences (NCATS), 2011)
Hit rate of the full screen: of about 410,000 compounds, about 5,000 (1.2%) were called active. The shares of active, inactive and inconclusive entries below differ from those in the screen. Calls come from the whole dose curve; as a rule, active = well fitted inhibition curve with a large enough effect; inconclusive = small, poorly fitted or top-dose-only effect; inactive = no such curve, though single readings can be large or run the other way. Potencies beside an inconclusive call are fits to weak or partial responses and may not hold up.

Experiment: qHTS for Inhibitors of TGF-b; note: nearly all actives have a fitted effect of over 65% in size
Conditions: HepG2 CAGA-GFP TGF-b/SMAD3 reporter, GFP fluorescence, 18 h, TGF-beta stimulated, 500 pg/mL final; series mostly up to 46.1 µM
In short: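 HEPG2 CAGA-GFP reporter cells (1000/well, DMEM with 1% FBS) received compounds, then recombinant TGF-beta at 500 pg/mL final for 18 hours at 37 degrees C. Per-cell GFP summed per well was normalised to unstimulated and stimulated DMSO controls before curve fitting.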
Potency is the fitted concentration of half-maximal effect; tags give direction and shape of the fitted curve.

Row | SMILES | Potency
1 | Oc1cccnc1CN1CCCCC1 | inactive
2 | Cc1cccc(Cn2nc(C(C)(C)C)cc2C(=O)Nc2ccc(F)cc2)c1 | inconclusive: 25.1 µM [inhibitor, single point]
3 | C=C(C)CNC(=S)NNC(=O)c1ccco1 | inconclusive: 17.8 µM [inhibitor, single point]
4 | Cc1ccc(Nc2nnc(-c3ccc(C)c(S(N)(=O)=O)c3)c3ccccc23)cc1 | active: 10 µM
5 | CS(=O)(=O)N1CCc2cc(-c3csc(NC(=O)Cc4ccccc4)n3)ccc21 | inconclusive: 12.6 µM [inhibitor, single point]
6 | CN(C)CCCN(C(=O)COc1ccccc1)c1nc2cc3c(cc2s1)OCO3 | inactive
7 | COc1cc2c(c(OC)c1OC)-c1c(cc3c(c1OC)OCO3)C1OC2[C@@H](C)[C@H]1C (stereo partly specified) | inactive
8 | CCCCN1C(=O)N(c2nnc(C(C)(C)C)s2)C(O)C1c1ccc(C)cc1 (stereo unspecified) | inconclusive: 22.4 µM [inhibitor, single point]
9 | O=C(Nc1ncc(Cc2ccccc2)s1)c1cccs1 | inconclusive: 22.4 µM [inhibitor, single point]
10 | CCOC(=O)c1cnc(-n2nc(C)cc2C)nc1NC1CCCC1 | inconclusive: 7.08 µM [inhibitor, partial curve]
11 | COc1ccc(S(=O)(=O)Nc2cccc3c2O[C@H](CN(C)Cc2ccc(Cl)c(Cl)c2)[C@@H](C)CN([C@H](C)CO)C3=O)cc1 | inconclusive: 3.55 µM [inhibitor, partial curve, poor fit]
12 | CCOc1ccc(CC(=O)NCC(c2cccs2)S(=O)(=O)c2ccc(F)c(C)c2)cc1 (stereo unspecified) | inactive
13 | CCc1ccc(NC(=O)C(CC)n2c(=O)c(-c3ccccc3NC(C)=O)nc3ccccc32)cc1 (stereo unspecified) | inconclusive: 35.5 µM [inhibitor, single point]
14 | CCN(CC)c1nc(N)c2c(N)nc3c(c2c1C#N)CC(c1ccccc1)O3 (stereo unspecified) | inconclusive: 20 µM [inhibitor, single point]
15 | CC(=O)N1CCN(Cc2cc(=O)oc3ccc4ccccc4c23)CC1 | inactive
16 | Cc1ccccc1/C=N/NC(=O)c1cccnc1 | inactive
17 | Cc1oc2c(C)c3oc(=O)c(CCC(=O)NCCCn4ccnc4)c(C)c3cc2c1C | inconclusive: 10 µM [inhibitor, single point]
18 | N#Cc1ccccc1Sc1ccccc1N | inactive
19 | COC(=O)c1ccc(CNC(=O)COC(=O)/C=C/c2cc(OC)c(OC)c(OC)c2)cc1 | inactive
20 | COc1ccc(CCN2CC(C(=O)NCc3c(C)n[nH]c3C)CCC2=O)cc1 (stereo unspecified) | inactive
21 | CC(C)CC(c1nnnn1CC1CCCO1)N1CCN(c2nc3ccccc3s2)CC1 (stereo unspecified) | inconclusive: 0.562 µM [inhibitor, full curve, poor fit]
22 | CCc1noc(C)c1C(=O)N1CCSC1=Nc1cccc(Cl)c1C | inconclusive: 12.6 µM [inhibitor, partial curve]
23 | O=C(c1ccccc1)c1nn(-c2ccc(Cl)cc2)c(=O)cc1C(F)(F)F | inconclusive: 35.5 µM [inhibitor, single point]

Row | SMILES | Potency
24 | Cc1ccc(C(=O)NCCSc2c(C)[nH]c3ccccc23)cc1[N+](=O)[O-] | inconclusive: 20 µM [inhibitor, single point]
25 | O=C(CSc1nc(-c2ccc(F)cc2)[nH]c1-c1ccc(F)cc1)Nc1ccc2c(c1)OCCO2 | active: 7.94 µM
26 | Cc1ccc(CN2CCN(C3CCN(S(=O)(=O)N(C)C)CC3)C(=O)C2=O)cc1 | inactive
27 | COc1cccc(N(CC(=O)N2CCN(C)CC2)S(=O)(=O)c2ccc(C)cc2)c1 | inactive
28 | CC1CCN(C(=O)Cn2c(SCC(=O)Nc3ccc(F)cc3)nc3ccccc32)CC1 | inactive
29 | CCN(CC)CCNC(=O)CCc1c(C)nc2c(c(C)nn2-c2ccc(C)c(C)c2)c1C | inconclusive: 35.5 µM [inhibitor, single point]
30 | O=C(Nc1cccc(-c2cccc(Cl)c2)c1)C1CCN(Cc2nccs2)CC1 | inconclusive: 25.1 µM [inhibitor, single point]
31 | COc1ccc(OC)c(CNC(=O)CSc2c3c(nc4cc(Cl)ccc24)CCCC3)c1 | inconclusive: 17.8 µM [inhibitor, partial curve]
32 | O=C(O)c1ccc2c3c(ncnc13)-c1ccccc1C2=O | active: 0.794 µM
33 | COc1ccccc1/C=C/c1onc(C)c1S(=O)(=O)N1CCC(C(=O)NC(C)C)CC1 | inactive
34 | O=C(NC1CCCCC1)N1CCC(c2nc(-c3ccc(S(=O)(=O)N4CCCC4)cc3)no2)CC1 | inconclusive: 10 µM [inhibitor, partial curve]
35 | CCC(=O)Nc1nonc1-c1nc2ccccc2n1CCC(C)C | inactive
36 | CSc1ccc(CN(C)C(=O)CN2C(=O)NC3(CCCC3)C2=O)cc1 | inactive
37 | Cc1cc(N2CCOCC2)nc2ccc(NC(=O)CCC(=O)N3CCC(C)CC3)cc12 | inconclusive: 5.62 µM [inhibitor, single point]
38 | Cc1cccc(NC(=O)Cn2c(=O)c3cccn3c3ccccc32)c1C | inactive
39 | CCS(=O)(=O)c1cccc(C(=O)Nc2ccc(-c3nc4ccccc4s3)c(O)c2)c1 | inconclusive: 0.794 µM [inhibitor, full curve, poor fit]
40 | OCCN1CCN(c2nc(-c3ccccc3)c3cc(Br)ccc3n2)CC1 | inconclusive: 35.5 µM [inhibitor, single point]
41 | COC(=O)/C=C1/S/C(=N/NC(=O)c2ccccc2C)NC1=O | inactive
42 | C/C(=N\NC(=O)c1ccc(NS(=O)(=O)c2cccs2)cc1)c1ccccn1 | inactive
43 | CC(C)OCCCNC(=O)CN1CCN(Cc2ccccc2Cl)C1=O | inactive
44 | COc1ccccc1N1CCN(C(=O)c2ccc(-c3ccccc3)cc2)CC1 | inconclusive: 35.5 µM [inhibitor, single point]
45 | CC/C(=N\NC(=S)Nc1cc(C)ccc1C)c1ccc(OC(F)F)cc1 | inconclusive: 35.5 µM [inhibitor, single point]
46 | O=C(CCC1CCCN(C(=O)CCCc2ccccc2)C1)N1CCN(c2ccccn2)CC1 (stereo unspecified) | inconclusive: 35.5 µM [inhibitor, single point]
